These results are taken from US20240016892A1 (SHATTUCK LABS, published 2024).

The target in assay [1] is T1, human 4-1BB-His (human, UniProt Q07011 24-186).
T1 construct: not shown: His tag
The experiment in a line: MSD 'Human 41BB-Binding Assay': coat h41BB-His (R&D), detect anti-41BBL (R&D), anti-Goat Sulfo. As to the method: In a similar experiment, human 4-1BB-His was coated on plates and increasing amounts of the hSIRPα-Fc-4-1BBL, PD-1-Fc-4-1BBL or hSIRPα-Fc-CD40L chimeric proteins were added to the plates for capture by the plate-bound human 4-1BB-His. The hSIRPα-Fc-CD40L chimeric protein was used as a negative control for binding to human 4-1BB. Binding of the chimeric proteins to 4-1BB-His was detected using an anti-4-1BBL antibody and an anti-sheep SULFO-TAG secondary antibody. Binding was assayed using an electrochemiluminescence (ECL) readout.

The target in assay [2] is T1, human 4-1BB-His. The experiment in a line: MSD sandwich 'Human CD47/41BB Dual-Binding Assay': coat h41BB-His (R&D), hSIRPa-Fc-41BBL titrated, detection printed as 'anti-CD47-His, Biotin (Acro)' (human CD47-His-Biotin by paragraph 626), Streptavidin Sulfo. As to the method: (§1) To understand whether the human SIRPα-Fc-4-1BBL chimeric protein can contemporaneously bind to human 4-1BB and CD47, human 4-1BB-His was coated on plates and increasing amounts of the hSIRPα-Fc-4-1BBL, or PD-1-Fc-4-1BBL chimeric proteins were added to the plates for capture by the plate-bound human 4-1BB-His. The PD-1-Fc-4-1BBL chimeric protein was used as a negative control. Then, human CD47-His-Biotin was added to the plate for capture by any chimeric protein, which was in turn captured by the human 4-1BB. Streptavidin SULFO-TAG secondary was used for detection. Binding was assayed using an electrochemiluminescence (ECL) readout.

In a further assay the target is T2, human CD47-His (human, UniProt Q08722 in part).
T2 construct: CD47-His and CD47-His-Biotin are treated as one molecule; also called human CD47-His-Biotin; not shown: His tag
The experiment in a line: MSD sandwich 'Human CD47/41BB Dual-Binding Assay': coat h41BB-His (R&D), hSIRPa-Fc-41BBL titrated, detection printed as 'anti-CD47-His, Biotin (Acro)' (human CD47-His-Biotin by paragraph 626), Streptavidin Sulfo (same curve as the coat row). As to the method:
as §1

Chain of human CD47-His (Q08722 19-139 limits assumed): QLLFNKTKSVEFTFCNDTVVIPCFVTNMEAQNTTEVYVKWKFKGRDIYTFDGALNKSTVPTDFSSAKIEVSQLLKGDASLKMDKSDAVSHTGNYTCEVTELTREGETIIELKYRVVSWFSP

B1: human SIRPα-Fc-4-1BBL chimeric protein (Fc fusion)
chain: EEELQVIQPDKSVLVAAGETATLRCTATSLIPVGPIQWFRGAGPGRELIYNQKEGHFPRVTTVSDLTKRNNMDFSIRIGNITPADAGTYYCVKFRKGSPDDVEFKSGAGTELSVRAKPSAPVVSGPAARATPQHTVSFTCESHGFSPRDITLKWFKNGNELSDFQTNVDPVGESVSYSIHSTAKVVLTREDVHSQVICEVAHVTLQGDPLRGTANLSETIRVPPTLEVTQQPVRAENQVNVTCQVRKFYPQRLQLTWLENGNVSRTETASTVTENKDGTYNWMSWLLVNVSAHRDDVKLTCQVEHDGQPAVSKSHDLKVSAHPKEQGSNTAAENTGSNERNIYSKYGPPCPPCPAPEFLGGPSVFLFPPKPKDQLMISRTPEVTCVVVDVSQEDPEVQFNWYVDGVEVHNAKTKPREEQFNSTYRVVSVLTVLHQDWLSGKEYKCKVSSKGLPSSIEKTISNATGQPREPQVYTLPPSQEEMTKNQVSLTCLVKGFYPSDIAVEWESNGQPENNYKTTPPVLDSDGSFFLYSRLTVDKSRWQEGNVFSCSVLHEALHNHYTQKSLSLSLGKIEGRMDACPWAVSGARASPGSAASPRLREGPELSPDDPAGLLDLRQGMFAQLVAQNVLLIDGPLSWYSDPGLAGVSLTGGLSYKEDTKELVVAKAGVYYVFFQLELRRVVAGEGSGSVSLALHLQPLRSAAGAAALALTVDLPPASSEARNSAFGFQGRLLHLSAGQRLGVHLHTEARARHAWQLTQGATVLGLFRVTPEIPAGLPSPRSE
notes: Glycosylated; forms multimers; also called hSIRPα-Fc-4-1BBL; CD172a(SIRPα)-Fc-4-1BBL
Regarding B1, the EC50 turned out to be 0.64 nM in the assay with human 4-1BB-His [1], 6.04 nM with human 4-1BB-His [2] and 6.04 nM with human CD47-His.
